# Screen size: about 380,000 compounds; about 4,000 (1.1%) were called active. This list was built around the results that the source calls inconclusive (neither active nor inactive); the mix of calls is not that of the screen. Calls come from the whole dose curve; as a rule, active = well fitted activation curve with a large enough effect; inconclusive = small, poorly fitted or top-dose-only effect; inactive = no such curve, though single readings can be large or run the other way. A potency beside an inconclusive call is a rough fit, not a confirmed value.
# Experiment: qHTS Assay to Identify Small Molecule Activators of BRCA1 Expression; note: nearly all actives have a fitted effect of over 80% in size
# Details: MCF7-BRCA1-FFLuc reporter, luminescence, 48 h; activation: at 46.1 µM (top of the series), scaled: vehicle 0%, 10 µM genistein 100% unless noted
# Method in brief: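 Reporter cells (MCF7, BRCA1 promoter-firefly luciferase) received library compounds across a concentration series for 48 h. End-point luminescence was measured and concentration-effect curves derived after normalization.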
# Potency is the fitted concentration of half-maximal effect; tags give direction and shape of the fitted curve.
Structure (SMILES),activation,Potency
CCOc1ccc(OCc2cccc(C(=O)N/N=C/c3cccnc3)c2)cc1,inconclusive: -90.7% [activator],–
Fc1ccccc1NC(=S)NCCc1ccc(Cl)cc1,–,"inconclusive: 10 µM [activator, partial curve, poor fit]"
CN(C)c1nc(C=C(C#N)C#N)c(Cl)n1-c1ccc(F)cc1,inactive: -77.6%,–
CN(C)c1ccc(NC(=O)Nc2cccc3ccccc23)cc1,–,"inconclusive: 12.6 µM [activator, partial curve, poor fit]"
S=c1[nH]nc(-c2ccco2)n1Cc1ccccc1,inactive: -10.1%,–
Clc1ccc(-c2cnn3c(-c4ccncc4)ccnc23)cc1,–,"inconclusive: 7.08 µM [activator, partial curve, poor fit]"
Cc1csc(NC(=O)/C=C/c2ccc3c(c2)OCO3)n1,–,"inconclusive: 0.501 µM [activator, full curve, poor fit]"
COC(=O)c1c(-c2ccccc2)csc1NC(=O)c1ccco1,–,active: 5.01 µM
CCC(Sc1nc(=O)cc(N)n1-c1cccc(C)c1)C(=O)Nc1cc(C)on1 (stereo not given),inactive: 5.58%,–
O=[N+]([O-])c1cc(Br)cc(C=Nc2ccc3c(c2)OCO3)c1O,inactive: -20%,–
COc1cccc(-c2cc3onc(-c4ccccc4)c3c(=O)n2C)c1,–,"inconclusive: 1.12 µM [activator, full curve, poor fit]"
Cc1ccc2nc(-c3ccc(NC(=S)NC(=O)CC(C)C)cc3)sc2c1,–,"inconclusive: 2.51 µM [activator, full curve, poor fit]"
C/C(=N\NC(=O)c1cccs1)c1ccc(C(=O)O)s1,–,active: 14.1 µM
c1ccc(CNc2ccc(N3CCOCC3)cc2)cc1,–,"inconclusive: 2.82 µM [activator, full curve, poor fit]"
Oc1ccc(/C=N/NC2=NCCCCC2)c(O)c1,–,"inconclusive: 5.62 µM [activator, full curve, poor fit]"
CC(C)=CCC/C(C)=C/COc1c2ccoc2cc2oc(=O)ccc12,inactive: -10.8%,–
COc1ccc(C(=O)/C=C/Nc2cccc(C)n2)cc1OC,–,"inconclusive: 2 µM [activator, partial curve, poor fit]"
CCCN(CCC)C(=O)Cn1c(=O)n(-c2ccc(Cl)cc2)c(=O)c2c3c(sc21)CCCCC3,inactive: 0.395%,–
OCCCNC(=S)Nc1ccc(Oc2ccccc2)cc1,inactive: 0.0301%,–
CNC(=S)NNC(=O)c1ccc(C(C)(C)C)cc1,–,"inconclusive: 6.31 µM [activator, partial curve, poor fit]"
COC(=O)c1ccccc1NC(=O)c1ccc2c(c1)OCCO2,inactive: -17.3%,–
Cn1nnnc1SCc1ccc(C(=O)Nc2ccc(Br)cc2)cc1,–,active: 10 µM
Cc1ccnc(NC(=O)c2ccc(Cl)c(S(=O)(=O)N3CCCC3)c2)c1,–,active: 7.08 µM
O=C(NC(=S)Nc1ccc2c(c1)OCCO2)c1cccc2ccccc12,–,"inconclusive: 12.6 µM [activator, partial curve, poor fit]"
O=C(CCNC(=O)c1ccc(Br)cc1)NCC1COc2ccccc2O1 (stereo not given),–,"inconclusive: 12.6 µM [activator, partial curve, poor fit]"

Structure (SMILES),activation,Potency
CCc1ccc2nc3n[nH]c(N)c3cc2c1,–,"inconclusive: 17.8 µM [activator, single point]"
Cc1cc(-c2nnco2)c(C)n1-c1ccccc1,–,"inconclusive: 12.6 µM [activator, partial curve, poor fit]"
CCC(=O)NC1CC2CCCC(C1)N2Cc1ccc(C)cc1 (stereo not given),inactive: 11.1%,–
Cc1ccc(-n2ncc3c2CCCC3NC(=O)c2ocnc2C)cc1C (stereo not given),inactive: -37.3%,–
Cc1ccsc1/C=N/n1cnc2sc(C)c(C)c2c1=O,–,active: 11.2 µM
Cc1snc2sc(C(=O)c3ccc(Br)cc3)c(N)c12,–,"inconclusive: 0.562 µM [activator, full curve, poor fit]"
COc1ccc(C2SCC(=O)N2c2nc3ccccc3s2)cc1 (stereo not given),–,"inconclusive: 15.8 µM [activator, single point]"
Cc1cc(NC(=O)c2cccnc2)ccc1Br,–,"inconclusive: 20 µM [activator, single point]"
CC(=O)NC(Cc1c[nH]c2ccccc12)C(=O)Nc1ccc2c(c1)OCO2 (stereo not given),inactive: 27.3%,–
CC(=O)Oc1c(Cl)cc(Cl)cc1/C=C/c1ccc2ccccc2n1,inactive: -41.2%,–
CC1CC(=O)c2cc(-c3ccccc3)oc2C1 (stereo not given),–,"inconclusive: 14.1 µM [activator, partial curve, poor fit]"
COc1ccc(-c2cccc3c2NC(=O)C3=O)cc1OC,inactive: 4.43%,–
O=C(NCc1ccco1)Nc1ccc(Br)cc1,–,"inconclusive: 15.8 µM [activator, partial curve, poor fit]"
Cc1ccc(Nc2nc(Cl)nc(NC(C)(C)C)n2)cc1,–,"inconclusive: 31.6 µM [activator, single point]"
COc1ccc2cc(C(=O)NCCc3ccccc3)[nH]c2c1,–,active: 4.47 µM
Cc1ccc(SCc2ccc(C(=O)Nc3nccs3)o2)cc1,–,"inconclusive: 17.8 µM [activator, partial curve, poor fit]"
Cc1n[nH]c(C)c1Sc1ccccc1N=Cc1cc(Cl)cc([N+](=O)[O-])c1O,inactive: -25.7%,–
c1ccc(CCc2nc(-c3ccccn3)no2)cc1,–,"inconclusive: 2.51 µM [activator, full curve, poor fit]"
CCCC(=O)Nc1cc(C)c(NC(=O)c2ccco2)cn1,inactive: 8.65%,–
O=C(Cc1cccs1)Nc1nc2ccccc2s1,–,active: 7.08 µM
CCc1ccc(NC(=O)c2cc(-c3cccs3)on2)cc1,–,"inconclusive: 10 µM [activator, partial curve, poor fit]"
COc1cc2c(cc1OC)CN(c1ccc3ccccc3n1)CC2,–,active: 11.2 µM
Cc1cc(C(=O)Nc2ccccc2)oc1C,–,"inconclusive: 3.55 µM [activator, full curve, poor fit]"
O=C(Nc1ccc2c(c1)OCO2)c1ccc(Cl)s1,–,"inconclusive: 10 µM [activator, partial curve, poor fit]"
Cc1ccc(C(=O)NNC(=O)c2cccs2)cc1,–,"inconclusive: 15.8 µM [activator, partial curve, poor fit]"

# Source: PubChem BioAssay AID624202 (National Center for Advancing Translational Sciences (NCATS), 2012)
